The whole screen tested about 48,000 compounds, of which about 120 (0.25%) were called active. Not shown: some 4% with an inconclusive outcome. Calls come from the whole dose curve; as a rule, active = well fitted activation curve with a large enough effect; inconclusive = small, poorly fitted or top-dose-only effect, or another doubt; inactive = no such curve, though single readings can be large or run the other way. Some of the results follow.
Test: Primary qHTS for Identification of Small Molecule Activators of Huntingtin-Antisense Promoter Activity; note: nearly all actives have a fitted effect of over 55% in size
Details: HEK293 HTT-AS promoter firefly luciferase reporter (activity 0% = vehicle and -100% = no light), 24 h; series mostly up to 57.5 µM; activity change, positive = activation: at the top concentration
Summary of the method: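 HEK293 Fluc reporter, 2,500 cells/well, 24 h pre-culture; cpds up to 57.5 uM final, 24 h 37 degrees C; Dual-Glo, 10 min RT; normalized vehicle = 0%, zero RLU = -100%.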

Activity change, positive = activation, inactive:
CCOC(=O)Cn1c(=O)n(-c2ccccc2OC)c2nc(-c3ccccc3C)nc(C(N)=O)c21 -19.3%
O=C(COc1ccccc1)Nc1ccccc1C(=O)OCc1cc(=O)n2nc(C3CC3)sc2n1 8.47%
CCOc1ccccc1NC(=O)Cn1nnc(C(=O)Nc2ccc(C)c(C)c2)c1N -8.17%
Cc1c(C(=O)N2CCC(C)CC2)c(S(=O)(=O)N2CCN(c3ccc(Cl)cc3)CC2)c(C)n1C -17.1%
Cc1ccc(Cl)cc1N1CCN(C(=O)C2CCN(Cc3nc(-c4ccc(Cl)cc4)oc3C)CC2)CC1 -32.2%
CC(C)(C)OC(=O)N1CCC(c2c(C(=O)NC3CCCCC3)cnn2-c2cccc(Cl)c2)CC1 -26.2%
Cn1nccc1C(=O)NCc1ccc2c(c1)CCN2C(=O)c1ccccc1 -6.14%
COc1ccc(-c2nc3sc(CCNC(=O)C(=O)Nc4c(C)cccc4C)c(C)n3n2)cc1 -3.69%
CC1CCCN(CCCNC(=O)CN2C(=O)CSc3ccc(S(=O)(=O)N4CCOCC4)cc32)C1 (stereo unspecified) -10.6%
O=C(Cn1c(=O)oc2cc(S(=O)(=O)NC3CCCC3)ccc21)Nc1ccc(F)c(F)c1 -26.3%
Cc1ccc(Cl)cc1N1CCN(S(=O)(=O)c2cc3[nH]c(=O)c(=O)[nH]c3cc2C)CC1 -26.7%
COc1ccccc1CNC(=O)c1cnn2c(C)c(Cc3ccc(F)cc3)c(C)nc12 -10.4%
Cc1ccc(C(c2sc3nc(-c4ccco4)nn3c2O)N2CCN(Cc3ccccc3)CC2)cc1 (stereo unspecified) -12.1%
COc1cccc(C2CC(=O)Nc3c2c(=O)nc2c(C)cccn32)c1OC (stereo unspecified) 0.13%
CCOC(=O)c1ccc(NC(=O)CN2C(=O)COc3ccc(Cl)cc32)cc1 -23.1%
COc1ccc2c(c1OC)C(=O)OC2[C@H]1c2c(cc3c(c2OC)OCO3)CCN1C (stereo partly specified) -29.2%
CC(=O)c1ccc(N2CCN(S(=O)(=O)c3ccc(-c4cc(C)no4)s3)CC2)cc1 -31.5%
Cc1cc(C)c(S(=O)(=O)n2cnc(C)c2)c(C)c1 -7.11%
CC(=O)NC(C)c1ccc(Oc2ccc(OC(C)C)cc2)cc1 (stereo unspecified) 0.261%
Cc1ccc(-c2ccc(=O)n(CC(=O)NCc3ccc(F)cc3)n2)cc1 -6.98%
CCC(C)NC(=O)C1CCC(CNS(=O)(=O)c2ccc(Cl)cc2)CC1 (stereo unspecified) -3.41%
COc1ccc(-c2nc3n(n2)C(=O)CC(c2ccc(Cl)cc2)S3)cc1 (stereo unspecified) -6.09%
CCn1c2ccccc2c2cc(NC(=O)COc3ccc(C)c(C)c3)ccc21 8.41%
CCOC(=O)c1ccc(NC(=O)CC2NCCNC2=O)cc1 (stereo unspecified) 11.7%
Cc1ccc2nc3c(cc(C(=O)NC4CCCCC4)c(=N)n3C(C)C)c(=O)n2c1 -5.28%
CCOC(=O)C1CCN(S(=O)(=O)c2ccc3c(c2)NC(=O)C(C)C(=O)N3)CC1 (stereo unspecified) -3.71%
